Data from publication PMC12435841.
No constants are given. Whether binding was seen depends on the method and setting. Binding seen in cells or lysates may run through a third protein. Some results given as binding are weak or reduced against the parent protein; the word gives no strength. Where a sequence is shown, tags or fusion partners need not be part of it.

T1: PPIL1, HA-tagged (human) (UniProt Q9Y3C6)
T1 sequence: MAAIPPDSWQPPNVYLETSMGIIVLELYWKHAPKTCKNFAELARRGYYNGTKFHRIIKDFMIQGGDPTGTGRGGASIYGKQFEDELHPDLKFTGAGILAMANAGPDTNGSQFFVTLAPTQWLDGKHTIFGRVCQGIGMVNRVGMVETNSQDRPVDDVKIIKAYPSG

T2: PLRG1, HA-tagged (human) (UniProt O43660)
T2 sequence: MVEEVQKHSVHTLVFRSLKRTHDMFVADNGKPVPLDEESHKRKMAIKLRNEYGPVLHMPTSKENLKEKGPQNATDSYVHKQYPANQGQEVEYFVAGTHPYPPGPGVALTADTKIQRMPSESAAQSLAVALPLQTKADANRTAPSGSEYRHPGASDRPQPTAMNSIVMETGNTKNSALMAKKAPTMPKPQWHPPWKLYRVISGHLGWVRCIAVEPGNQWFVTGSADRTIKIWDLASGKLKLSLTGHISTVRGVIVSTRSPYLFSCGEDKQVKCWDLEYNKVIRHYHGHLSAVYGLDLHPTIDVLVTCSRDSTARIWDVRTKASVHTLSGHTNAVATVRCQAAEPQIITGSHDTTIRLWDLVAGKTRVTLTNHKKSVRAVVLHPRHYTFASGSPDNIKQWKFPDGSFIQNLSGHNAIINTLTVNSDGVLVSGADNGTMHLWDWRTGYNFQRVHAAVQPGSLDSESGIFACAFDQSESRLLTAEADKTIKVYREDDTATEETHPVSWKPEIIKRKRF


Legend:
PPIL1, HA-tagged (human) = biological target: T1, PPIL1, HA-tagged (human); assay: co-IP; HEK293T cells transfected with plasmids encoding SNW1-FLAG (WT or variant) and the HA-tagged partner; cell lysates subjected to anti-FLAG and anti-HA IP, analysed by Western blotting
PLRG1, HA-tagged (human) = biological target: T2, PLRG1, HA-tagged (human); assay: as above

Binder | binding (PPIL1, HA-tagged (human)) | binding (PLRG1, HA-tagged (human))
SNW1 G61_G62del, FLAG-tagged (protein, UniProt Q13573 1-536) MALTSFLPAPTQLSQDQLEAEEKARSQRSRQTSLVSSRREPPPYGYRKGWIPRLLEDFGDAFPEIHVAQYPLDMGRKKKMSNALAIQVDSEGKIKYDAIARQGQSKDKVIYSKYTDLVPKEVMNADDPDLQRPDEEAIKEITEKTRVALEKSVSQKVAAAMPVRAADKLAPAQYIRYTPSQQGVAFNSGAKQRVIRMVEMQKDPMEPPRFKINKKIPRGPPSPPAPVMHSPSRKMTVKEQQEWKIPPCISNWKNAKGYTIPLDKRLAADGRGLQTVHINENFAKLAEALYIADRKAREAVEMRAQVERKMAQKEKEKHEEKLREMAQKARERRAGIKTHVEKEDGEARERDEIRHDRRKERQHDRNLSRAAPDKRSKLQRNENRDISEVIALGVPNPRTSNEVQYDQRLFNQSKGMDSGFAGGEDEIYNVYDQAWRGGKDMAQSIYRPSKNLDKDMYGDDLEARIKTNRFVPDKEFSGSDRRQRGREGPVQFEEDPFGLDKFLEEAKQHGGSKRPSDSSRPKEHEHEGKKRRKE | no binding | 
SNW1 A63P, FLAG-tagged (protein, UniProt Q13573 1-536) MALTSFLPAPTQLSQDQLEAEEKARSQRSRQTSLVSSRREPPPYGYRKGWIPRLLEDFGDGGPFPEIHVAQYPLDMGRKKKMSNALAIQVDSEGKIKYDAIARQGQSKDKVIYSKYTDLVPKEVMNADDPDLQRPDEEAIKEITEKTRVALEKSVSQKVAAAMPVRAADKLAPAQYIRYTPSQQGVAFNSGAKQRVIRMVEMQKDPMEPPRFKINKKIPRGPPSPPAPVMHSPSRKMTVKEQQEWKIPPCISNWKNAKGYTIPLDKRLAADGRGLQTVHINENFAKLAEALYIADRKAREAVEMRAQVERKMAQKEKEKHEEKLREMAQKARERRAGIKTHVEKEDGEARERDEIRHDRRKERQHDRNLSRAAPDKRSKLQRNENRDISEVIALGVPNPRTSNEVQYDQRLFNQSKGMDSGFAGGEDEIYNVYDQAWRGGKDMAQSIYRPSKNLDKDMYGDDLEARIKTNRFVPDKEFSGSDRRQRGREGPVQFEEDPFGLDKFLEEAKQHGGSKRPSDSSRPKEHEHEGKKRRKE | no binding | 

The next lines start with the values.

binding (PPIL1, HA-tagged (human)) | binding (PLRG1, HA-tagged (human)) | Binder
no binding |  | SNW1 D57_K110del (deletion of exon 3), FLAG-tagged (protein, UniProt Q13573) MALTSFLPAPTQLSQDQLEAEEKARSQRSRQTSLVSSRREPPPYGYRKGWIPRLLEVIYSKYTDLVPKEVMNADDPDLQRPDEEAIKEITEKTRVALEKSVSQKVAAAMPVRAADKLAPAQYIRYTPSQQGVAFNSGAKQRVIRMVEMQKDPMEPPRFKINKKIPRGPPSPPAPVMHSPSRKMTVKEQQEWKIPPCISNWKNAKGYTIPLDKRLAADGRGLQTVHINENFAKLAEALYIADRKAREAVEMRAQVERKMAQKEKEKHEEKLREMAQKARERRAGIKTHVEKEDGEARERDEIRHDRRKERQHDRNLSRAAPDKRSKLQRNENRDISEVIALGVPNPRTSNEVQYDQRLFNQSKGMDSGFAGGEDEIYNVYDQAWRGGKDMAQSIYRPSKNLDKDMYGDDLEARIKTNRFVPDKEFSGSDRRQRGREGPVQFEEDPFGLDKFLEEAKQHGGSKRPSDSSRPKEHEHEGKKRRKE
binds | binds | SNW domain-containing protein 1 (SNW1), wild type, FLAG-tagged (protein, UniProt Q13573 1-536) MALTSFLPAPTQLSQDQLEAEEKARSQRSRQTSLVSSRREPPPYGYRKGWIPRLLEDFGDGGAFPEIHVAQYPLDMGRKKKMSNALAIQVDSEGKIKYDAIARQGQSKDKVIYSKYTDLVPKEVMNADDPDLQRPDEEAIKEITEKTRVALEKSVSQKVAAAMPVRAADKLAPAQYIRYTPSQQGVAFNSGAKQRVIRMVEMQKDPMEPPRFKINKKIPRGPPSPPAPVMHSPSRKMTVKEQQEWKIPPCISNWKNAKGYTIPLDKRLAADGRGLQTVHINENFAKLAEALYIADRKAREAVEMRAQVERKMAQKEKEKHEEKLREMAQKARERRAGIKTHVEKEDGEARERDEIRHDRRKERQHDRNLSRAAPDKRSKLQRNENRDISEVIALGVPNPRTSNEVQYDQRLFNQSKGMDSGFAGGEDEIYNVYDQAWRGGKDMAQSIYRPSKNLDKDMYGDDLEARIKTNRFVPDKEFSGSDRRQRGREGPVQFEEDPFGLDKFLEEAKQHGGSKRPSDSSRPKEHEHEGKKRRKE
 | binds | SNW1 M230_H231delinsRY, FLAG-tagged (protein, UniProt Q13573 1-536) MALTSFLPAPTQLSQDQLEAEEKARSQRSRQTSLVSSRREPPPYGYRKGWIPRLLEDFGDGGAFPEIHVAQYPLDMGRKKKMSNALAIQVDSEGKIKYDAIARQGQSKDKVIYSKYTDLVPKEVMNADDPDLQRPDEEAIKEITEKTRVALEKSVSQKVAAAMPVRAADKLAPAQYIRYTPSQQGVAFNSGAKQRVIRMVEMQKDPMEPPRFKINKKIPRGPPSPPAPVRYSPSRKMTVKEQQEWKIPPCISNWKNAKGYTIPLDKRLAADGRGLQTVHINENFAKLAEALYIADRKAREAVEMRAQVERKMAQKEKEKHEEKLREMAQKARERRAGIKTHVEKEDGEARERDEIRHDRRKERQHDRNLSRAAPDKRSKLQRNENRDISEVIALGVPNPRTSNEVQYDQRLFNQSKGMDSGFAGGEDEIYNVYDQAWRGGKDMAQSIYRPSKNLDKDMYGDDLEARIKTNRFVPDKEFSGSDRRQRGREGPVQFEEDPFGLDKFLEEAKQHGGSKRPSDSSRPKEHEHEGKKRRKE
